“And” between values parts separate entries of the source, which are not always exact repeats. Equal values may be shown once. The inconclusive results got no clear call from the source; some entries with a clear call stand among them for comparison. For some assays here: Potencies beside an inconclusive call are fits to weak or partial responses and may not hold up. For some assays here: A note “side channel” means that the fit belongs to a control or component signal, not to the main read-out. The source holds several records for some structures; these can differ, active in one and inactive in another. The source made the active and inactive calls. Unless noted, calls come from the whole dose curve; as a rule, active = well fitted curve in the direction sought with a large enough effect; inconclusive = small, poorly fitted or top-dose-only effect, or another doubt; inactive = no such curve, though single readings can be large; an effect the other way counts as inactive or inconclusive.
Tests used:
[1] = biological target: Estrogen receptor (Homo sapiens) (UniProt P03372); test: qHTS assay for small molecule antagonists of estrogen receptor alpha signaling (AID 588513; active = well fitted curve in the direction sought with a large enough effect in the signal ratio, with a control signal flat, not every such curve was filed as active; inconclusive = small, poorly fitted or top-dose-only effect, or effect the other way, or a change in a side signal; inactive = no such curve, though single readings can be large or run the other way; the % refers to the signal ratio; note: potency is the fitted concentration of half-maximal effect; for activity, negative = inhibition: % is set by controls: 0 for no effect and ±100 for the full control effect); conditions: ER-alpha-UAS-bla HEK293, beta-lactamase ratio, antagonist mode; activity, negative = inhibition: at 76.9 µM (top of the series) unless noted
In short: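 ER-alpha-UAS-bla GripTite HEK 293 cells in medium with 2% charcoal/dextran-treated FBS were preincubated 4 h at 37 C, dosed with compound (1:2 titration), stimulated with 0.5nM 17-beta-estradiol for 18 h, then read by CCF4 beta-lactamase fluorescence.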

[2] = biological target: Glucocorticoid receptor (Homo sapiens) (UniProt P04150); test: qHTS assay for small molecule agonists of glucocorticoid receptor signaling (AID 588532; active = well fitted curve in the direction sought with a large enough effect in the signal ratio, with a control signal flat; inconclusive = small, poorly fitted or top-dose-only effect, or a change in a side signal; inactive = no such curve, though single readings can be large or run the other way; the % refers to the signal ratio; note: potency is the fitted concentration of half-maximal effect); conditions: HeLa MMTV-bla, beta-lactamase ratio, agonist, 18 h; activation: hits give high values, percent of dexamethasone control, DMSO zero
In short: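 Stimulation of a glucocorticoid response element-driven beta-lactamase gene was measured in HeLa cells. Responses were scaled between DMSO basal and 0.1 uM dexamethasone, then fitted for half-maximal stimulation.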

[3] = biological target: Peroxisome proliferator-activated receptor gamma (Homo sapiens) (UniProt P37231); test: qHTS assay for small molecule agonists of peroxisome proliferator-activated receptor gamma signaling (AID 588536; active = well fitted curve in the direction sought with a large enough effect in the signal ratio, with a control signal flat, not every such curve was filed as active; inconclusive = small, poorly fitted or top-dose-only effect, or effect the other way, or a change in a side signal; inactive = no such curve, though single readings can be large or run the other way; the % refers to the signal ratio;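 note: 0% = DMSO basal wells and 100% = rosiglitazone at 2 µM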); conditions: HEK293 PPARg-UAS-bla, beta-lactamase ratio, 16 h, percent of rosiglitazone response
In short: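 PPAR-gamma-UAS-bla HEK293 cells in medium with 1% charcoal/dextran-treated FBS were exposed to compounds for 16 h at 37 C. Beta-lactamase activity was read with CCF4 substrate (405 nm excitation, 460/530 nm emission).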

[4] = biological target: Peroxisome proliferator-activated receptor gamma (Homo sapiens) (UniProt P37231); test: qHTS assay for small molecule antagonists of peroxisome proliferator-activated receptor gamma signaling (AID 588537; active = well fitted inhibition curve with a large enough effect in the signal ratio, with a control signal flat, not every such curve was filed as active; inconclusive = small, poorly fitted or top-dose-only effect, or effect the other way, or a change in a side signal; the % refers to the signal ratio; note: potency is the fitted concentration of half-maximal effect;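 note: reporter cells co-stimulated with 50 nM rosiglitazone agonist during compound treatment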; for activity, negative = inhibition: % of control where 0% means no effect); conditions: HEK293 PPARg-UAS-bla, beta-lactamase ratio, antagonist mode; activity, negative = inhibition: at 76.8 µM (top of the series)
In short: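 PPAR-gamma-UAS-bla HEK293 cells (3000/well, 1% charcoal/dextran-stripped FBS) were preincubated 6-6.5 h at 37 C, given titrated compounds, then stimulated with 50 nM rosiglitazone for 16 h. Beta-lactamase activity was read with CCF4 dye; IC50 came from Hill fits.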

[5] = biological target: Retinoic acid receptor RXR-alpha (Homo sapiens) (UniProt P19793); test: qHTS assay for small molecule agonists of retinoid X receptor alpha signaling (AID 588544; calls by dose curve;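 note: 0% = DMSO basal wells and 100% = reference agonist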); conditions: HEK293T RXRa-UAS-bla, beta-lactamase reporter, 18 h; activation: at 76.7 µM (top of the series) unless noted
[6] = biological target: Retinoic acid receptor RXR-alpha (Homo sapiens) (UniProt P19793); test: qHTS assay for small molecule antagonists of retinoid X receptor alpha signaling (AID 588546; active = well fitted inhibition curve with a large enough effect in the signal ratio, with a control signal flat, not every such curve was filed as active; inconclusive = small, poorly fitted or top-dose-only effect, or effect the other way, or a change in a side signal; inactive = no such curve, though single readings can be large or run the other way; the % refers to the signal ratio;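 note: cells stimulated with 9-cis-retinoic acid as agonist; % is set by controls: 0 for no effect and ±100 for the full control effect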); conditions: HEK293T RXRa-UAS-bla, beta-lactamase ratio, antagonist mode
In short: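 Beta-lactamase reporter inhibition, read as CCF4 fluorescence ratio (ex 405, em 460/530 nm) after 2 h at RT. HEK293T UAS-bla cells, 2500/well, were stimulated with 9-cis-RA at 500 or 100 nM final alongside test compound for 18 h at 37 C.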

[7] = qHTS assay for small molecule agonists of the antioxidant response element (ARE) signaling pathway (AID 651741; active = well fitted activation curve with a large enough effect in the signal ratio; inconclusive = small, poorly fitted or top-dose-only effect, or effect the other way, or a change in a side signal; the % refers to the signal ratio; note: % of control where 0% means no effect); conditions: HepG2 ARE-bla reporter, beta-lactamase FRET ratio, 16 h; activation: at 96 µM (top of the series) unless noted
In short: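 ARE-bla HepG2 cells (beta-lactamase reporter under ARE control) were plated at 2,000 cells/well, preincubated 5 h at 37 C/5% CO2, then treated with DMSO-dissolved compounds for 16 h at 37 C; LiveBLAzer B/G FRET substrate added, fluorescence read after 2 h at room temperature.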

[8] = qHTS assay for small molecule agonists of the antioxidant response element (ARE) signaling pathway measured by Nrf2-dependant transcriptional activity (AID 720636; active = well fitted curve in the direction sought with a large enough effect in the repeat runs; inconclusive = weak or mixed curves; inactive = no such curve, though single readings can be large; an effect the other way counts as inactive or inconclusive; note: potency is the fitted concentration of half-maximal effect)
In short: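 Cells: ARE-luc HepG2 with Nrf2-responsive luciferase. Medium contained 1% dialyzed FBS. Compound exposure lasted 16 hr at 37 C and 5% CO2, followed by ONE-Glo luciferase detection.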

[9] = biological target: Vitamin D3 receptor (Homo sapiens) (UniProt P11473); test: qHTS assay for small molecule agonists of vitamin D receptor signaling (AID 588543; calls by dose curve; note: potency is the fitted concentration of half-maximal effect); conditions: HEK293T VDR-UAS-bla, beta-lactamase ratio, 16 h; activation: at 76.8 µM (top of the series)
In short: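 GeneBLAzer VDR-UAS-bla HEK293T cells in 2% charcoal-stripped FBS medium were dosed with compound titrations for 16 h at 37 °C; CCF4 β-lactamase readout (405 nm ex, 460/530 nm em). EC50 and efficacy from Hill fits, normalized to 50 nM calcitriol (100%) and DMSO (0%).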

[10] = qHTS assay for small molecule activators of the p53 signaling pathway (AID 651743; active = well fitted activation curve with a large enough effect in the signal ratio, not every such curve was filed as active; inconclusive = small, poorly fitted or top-dose-only effect, or a change in a side signal; the % refers to the signal ratio; note: % of control where 0% means no effect); conditions: HCT-116 p53RE-bla, beta-lactamase FRET ratio, 16 h; activation: hits give high values
In short: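 p53RE-bla HCT-116 cells with a stably integrated beta-lactamase reporter under p53 response elements were plated, rested 5 hours at 37 C/5% CO2, then exposed to compounds in DMSO for 16 hours at 37 C. LiveBLAzer B/G FRET substrate was read after 2 hours at room temperature.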

[11] = qHTS assay for small molecule activators of the nuclear factor-kappa B (NF-kB) signaling pathway (AID 651749; active = well fitted activation curve with a large enough effect in the signal ratio; inconclusive = small, poorly fitted or top-dose-only effect, or a change in a side signal; the % refers to the signal ratio; note: % of control where 0% means no effect); conditions: NF-kB-bla ME-180 cells, beta-lactamase FRET ratio, 16 h; activation: hits give high values
In short: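 ME-180 cells stably carrying a beta-lactamase reporter under an NF-kB response element were exposed to compound or DMSO vehicle for 16 hr at 37C, 5% CO2. Pathway activation was read by FRET, since reporter expression disrupts FRET.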

[12] = biological target: Peroxisome proliferator-activated receptor alpha (Homo sapiens) (UniProt Q07869); test: qHTS assay for small molecule agonists of the peroxisome proliferator-activated receptor alpha (PPARalpha) signaling pathway (AID 651778); conditions: PathHunter PPARalpha complementation, chemiluminescence, 6 h; max response: hits give high values; note: potency is the fitted concentration of half-maximal effect
In short: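 Cells plated at 2,000/well and held overnight at 37 C, 5% CO2, then compound added by pin tool for 6 hr; after PathHunter detection reagent and 60 min at room temperature, chemiluminescence from enzyme complementation was read.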

[13] = Cell Viability - LYMP2-001 (AID 921); conditions: LYMP2-001 lymphoblastoid cell viability; activity change, negative = cytotoxic: at 92.2 µM (top of the series); note: potency is the fitted concentration of half-maximal effect; nearly all actives have a fitted effect of over 70% in size
In short: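 Human lymphoblastoid cells (Coriell), 2500 per well, were preincubated 5 hr at 37 C, then exposed to compounds in complete medium for 24 hr at 37 C. Cellular ATP was read by CellTiter-Glo luminescence; AC50 from Hill fits of concentration-response data.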

[14] = Cell Viability - LYMP2-004 (AID 966); conditions: LYMP2-004 lymphoblastoid cell viability, qHTS; activity change, negative = cytotoxicity: at 92.2 µM (top of the series);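 note: plate controls were DMSO only for no effect and tetraoctylammonium bromide control for full effect; nearly all actives have a fitted effect of over 65% in size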
In short: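 Human lymphoblastoid cells (2500/well) in complete medium were treated with compounds for 24 hr at 37 C, then intracellular ATP was measured by CellTiter-Glo luminescence. AC50 values came from Hill-equation fits of concentration-response data.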

[15] = Cell Viability - LYMP2-009 (AID 968); note: potency is the fitted concentration of half-maximal effect; nearly all actives have a fitted effect of over 55% in size
[16] = Cell Viability - LYMP2-011 (AID 969);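 note: 0% = DMSO only and full inhibition = 92 µM tetraoctylammonium bromide; nearly all actives have a fitted effect of over 60% in size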
In short: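 Human lymphoblastoid cells (2500/well) were plated in complete medium, preincubated 5 hr at 37 C, then exposed to compounds for 24 hr at 37 C. Intracellular ATP was read by CellTiter-Glo luminescence, and AC50 came from Hill-equation concentration-response fits.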

[17] = Cell Viability - LYMP2-021 (AID 974);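 note: potency is the fitted concentration of half-maximal effect; compound exposure lasts 24 hours at 37 °C; nearly all actives have a fitted effect of over 55% in size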
In short: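 Human lymphoblastoid cells (2500/well) were preincubated 5 hr at 37 C, then exposed to compounds for 24 hr at 37 C in complete medium. Intracellular ATP was read by CellTiter-Glo luminescence; AC50 came from Hill-equation fits of concentration-response data.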

[18] = Cell Viability - LYMP2-010 (AID 981); note: potency is the fitted concentration of half-maximal effect; nearly all actives have a fitted effect of over 55% in size
In short: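 Human lymphoblastoid LYMP2-010 cells (2500/well) were preincubated 5 hr at 37 C, then exposed to compounds for 24 hr at 37 C in complete medium. Intracellular ATP was measured by CellTiter-Glo luminescence after 30 min at room temperature; AC50 from Hill-fitted concentration-response.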

[19] = Cell Viability - LYMP2-020 (AID 986); conditions: activity change, negative = viability loss: at 92.2 µM (top of the series); note: potency is the fitted concentration of half-maximal effect; nearly all actives have a fitted effect of over 55% in size
In short: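 Human lymphoblastoid cells, 2500/well, were pre-incubated 5 hr at 37 C, then exposed to compounds for 24 hr at 37 C in complete medium. Intracellular ATP was read by CellTiter-Glo luminescence, and AC50 was derived by Hill fitting of concentration-response data.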

[20] = Cell Viability - LYMP2-022 (AID 987)
In short: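 Human lymphoblastoid cells, 2500/well, preincubated 5 hr at 37 C, then exposed to compounds over a concentration range for 24 hr at 37 C in complete medium. Viability read as intracellular ATP by CellTiter-Glo luminescence after 30 min at room temperature; AC50 from Hill fits.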

[21] = Cell Viability - LYMP2-024 (AID 988); note: potency is the fitted concentration of half-maximal effect; nearly all actives have a fitted effect of over 60% in size
In short: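 Human lymphoblastoid cells (2500/well) in complete medium were preincubated 5 hr at 37 C, then exposed to compounds for 24 hr at 37 C. Intracellular ATP was read by CellTiter-Glo luminescence; AC50 from Hill-equation fits of concentration-response data.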

[22] = biological target: Glucocorticoid receptor (Homo sapiens) (UniProt P04150); test: qHTS assay for small molecule antagonists of glucocorticoid receptor signaling (AID 588533; active = well fitted inhibition curve with a large enough effect in the signal ratio, with a control signal flat, not every such curve was filed as active; inconclusive = small, poorly fitted or top-dose-only effect, or effect the other way, or a change in a side signal; the % refers to the signal ratio;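 note: cells stimulated with 2 nM dexamethasone as agonist; % is set by controls: 0 for no effect and ±100 for the full control effect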); conditions: HeLa MMTV-bla, GRE beta-lactamase ratio, antagonist mode, 18 h; activity change, negative = inhibition: at 76.8 µM (top of the series) unless noted
[23] = biological target: Peroxisome proliferator-activated receptor delta (Homo sapiens) (UniProt Q03181); test: qHTS assay for small molecule agonists of peroxisome proliferator-activated receptor delta signaling (AID 588534; calls by dose curve;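 note: 0% = DMSO basal wells and 100% = positive control agonist at 10 µM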); conditions: HEK293T PPARdelta-UAS-bla, beta-lactamase ratio, 18 h; activation: at 76.7 µM (top of the series)
In short: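 Cell-based beta-lactamase reporter assay run in agonist mode: cells seeded and incubated 5 hrs at 37 C, compounds added and incubated 18 hrs at 37 C. CCF4 dye fluorescence read after 2 hrs at RT; EC50 and efficacy from Hill fits.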

[24] = biological target: Peroxisome proliferator-activated receptor delta (Homo sapiens) (UniProt Q03181); test: qHTS assay for small molecule antagonists of peroxisome proliferator-activated receptor delta signaling (AID 588535; active = well fitted inhibition curve with a large enough effect in the signal ratio, with a control signal flat, not every such curve was filed as active; inconclusive = small, poorly fitted or top-dose-only effect, or effect the other way, or a change in a side signal; inactive = no such curve, though single readings can be large or run the other way; the % refers to the signal ratio); conditions: HEK293T PPARd-UAS-bla, beta-lactamase FRET ratio, 18 h
In short: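 GeneBLAzer PPAR-delta-UAS-bla HEK293T cells in medium with 2% charcoal/dextran FBS were preincubated 5 hrs at 37 C, then given compounds, incubated 18 hrs at 37 C, and read by CCF4 beta-lactamase fluorescence; IC50 from Hill fits.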

[25] = qHTS assay to identify small molecules that stimulate interleukin-8 (IL-8) secretion (AID 651758; active = well fitted activation curve with a large enough effect in the signal ratio; inconclusive = small, poorly fitted or top-dose-only effect, or effect the other way, or a change in a side signal; the % refers to the signal ratio; note: 0% is about no effect); conditions: HTRF ratio (665/615); activation: at 92.2 µM (top of the series)
In short: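 THP-1, 2000 cells/well; cpd 16 h, 37 C; add cryptate + XL665 anti-IL-8 Abs; RT 1-3 h; TR-FRET read.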

[26] = qHTS assay for small molecule agonists of the antioxidant response element (ARE) signaling pathway measured by Nrf2-dependant transcriptional activity - cell viability counter screen (AID 720653; active = well fitted curve in the direction sought with a large enough effect in the repeat runs; inconclusive = weak or mixed curves; inactive = no such curve, though single readings can be large; an effect the other way counts as inactive or inconclusive; note: potency is the fitted concentration of half-maximal effect); conditions: ARE-bla HepG2 viability, CellTiter-Glo ATP luminescence, 16 h; max response: hits give low values
In short: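 ARE-bla HepG2 cells (2,000/well) rested 5 hrs at 37C/5% CO2, then exposed to compounds in DMSO for 16 hrs. Viability was read in the same wells as intracellular ATP by luminescence, 30 min at room temperature after reagent addition.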

[27] = activation: at 76.7 µM (top of the series), DMSO as zero unless noted
Tags give direction and shape of the fitted curve or compound fluorescence and quenching.

UniProt Q03181, sequence (Q03181 whole entry, looked up): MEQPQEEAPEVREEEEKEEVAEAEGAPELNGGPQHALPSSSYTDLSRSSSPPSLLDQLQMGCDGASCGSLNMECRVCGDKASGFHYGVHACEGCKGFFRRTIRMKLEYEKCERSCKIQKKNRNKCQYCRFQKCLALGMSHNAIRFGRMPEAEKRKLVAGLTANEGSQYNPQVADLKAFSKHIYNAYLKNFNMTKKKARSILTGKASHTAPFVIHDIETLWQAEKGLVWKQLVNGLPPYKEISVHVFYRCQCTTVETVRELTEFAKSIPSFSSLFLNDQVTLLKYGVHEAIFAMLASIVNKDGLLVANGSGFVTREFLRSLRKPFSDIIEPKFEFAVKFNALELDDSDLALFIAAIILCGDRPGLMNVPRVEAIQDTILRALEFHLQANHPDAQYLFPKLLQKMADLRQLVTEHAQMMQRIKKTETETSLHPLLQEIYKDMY
UniProt P03372, sequence (P03372 whole entry, looked up): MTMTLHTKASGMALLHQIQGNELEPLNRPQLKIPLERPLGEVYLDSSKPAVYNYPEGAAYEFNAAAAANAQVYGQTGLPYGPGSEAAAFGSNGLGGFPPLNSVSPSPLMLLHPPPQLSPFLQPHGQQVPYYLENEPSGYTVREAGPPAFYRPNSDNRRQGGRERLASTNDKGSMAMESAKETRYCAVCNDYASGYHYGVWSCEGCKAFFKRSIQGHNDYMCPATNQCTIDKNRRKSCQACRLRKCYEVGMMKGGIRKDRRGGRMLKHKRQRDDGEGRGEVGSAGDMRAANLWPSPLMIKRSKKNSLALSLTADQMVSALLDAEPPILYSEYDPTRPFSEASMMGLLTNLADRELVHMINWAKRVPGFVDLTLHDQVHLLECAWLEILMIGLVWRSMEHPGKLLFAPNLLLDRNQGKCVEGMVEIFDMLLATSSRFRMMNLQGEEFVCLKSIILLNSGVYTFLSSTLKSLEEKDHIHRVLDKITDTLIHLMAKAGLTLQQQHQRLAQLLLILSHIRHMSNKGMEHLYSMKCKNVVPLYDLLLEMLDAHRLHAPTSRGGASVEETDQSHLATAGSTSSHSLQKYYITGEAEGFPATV
UniProt P19793, sequence (P19793 whole entry, looked up): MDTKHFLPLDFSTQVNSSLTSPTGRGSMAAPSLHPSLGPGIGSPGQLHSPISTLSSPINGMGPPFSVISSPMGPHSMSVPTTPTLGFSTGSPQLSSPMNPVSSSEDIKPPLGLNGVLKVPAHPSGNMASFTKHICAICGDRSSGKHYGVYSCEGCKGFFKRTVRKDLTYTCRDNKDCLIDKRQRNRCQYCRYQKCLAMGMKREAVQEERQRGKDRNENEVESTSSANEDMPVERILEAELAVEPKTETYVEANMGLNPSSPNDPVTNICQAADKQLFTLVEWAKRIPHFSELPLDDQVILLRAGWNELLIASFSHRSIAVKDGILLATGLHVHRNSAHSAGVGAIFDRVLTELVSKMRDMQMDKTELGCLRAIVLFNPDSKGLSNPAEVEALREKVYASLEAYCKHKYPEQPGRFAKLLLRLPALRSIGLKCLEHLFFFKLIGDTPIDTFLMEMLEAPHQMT
UniProt Q07869, sequence (Q07869 whole entry, looked up): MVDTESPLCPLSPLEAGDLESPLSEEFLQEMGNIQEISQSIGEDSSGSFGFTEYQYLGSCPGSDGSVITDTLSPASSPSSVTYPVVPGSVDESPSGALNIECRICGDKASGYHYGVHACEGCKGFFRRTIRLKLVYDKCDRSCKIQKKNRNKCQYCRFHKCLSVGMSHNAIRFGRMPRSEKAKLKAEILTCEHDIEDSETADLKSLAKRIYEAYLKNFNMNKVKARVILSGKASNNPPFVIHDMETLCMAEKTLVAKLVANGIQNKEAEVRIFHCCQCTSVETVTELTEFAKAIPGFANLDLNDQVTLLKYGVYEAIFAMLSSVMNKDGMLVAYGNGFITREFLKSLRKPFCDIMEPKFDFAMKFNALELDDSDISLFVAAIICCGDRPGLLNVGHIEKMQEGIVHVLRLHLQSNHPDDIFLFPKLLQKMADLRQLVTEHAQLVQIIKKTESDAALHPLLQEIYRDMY

O=C(Nc1ccccc1)Nc1cnns1
inconclusive: activity, negative = inhibition [1] -62.5% | Potency [2] 0.0018 µM [side channel, rising, full curve, poor fit] | activation [3, 27] -10.6% | activity, negative = inhibition [4] -1.8% | activation [5] -17.7% | activation [7] 18.9% | Potency [8] 12.2 µM [activator, partial curve, poor fit]
inactive: max response [6] -46.6%

ClC1=C(Cl)C2(Cl)C3C4OC4C(Cl)C3C1(Cl)C2(Cl)Cl (stereo not drawn)
inactive: Potency [4] | max response [6] -6.75% | activation [10] -0.997% | activation [11] 4.48%
inconclusive: Potency [1] 28.2 µM [activator, partial curve, poor fit] | Potency [2] 28.2 µM [side channel, falling, single point] | Potency [9] 0.0063 µM [side channel, falling, full curve, poor fit] | activation [7] 21.1% | Potency [12] 50.1 µM [activator, single point]

CNC(=O)O/N=C/C(C)(C)SC
inactive: Potency [14] | Potency [16] | Potency [23] | activity change, negative = inhibition ([24]; at 76.7 µM (top of the series)) -32.2% and 2.17% | activation ([3]; at 76.7 µM (top of the series), DMSO as zero) 0.514% and 4.73% | activation [11] -0.362% and -4.25% and 1.36% | Potency [25]
inconclusive: Potency [13] 79.4 µM [cytotoxic, single point] | Potency [15] 79.4 µM [cytotoxic, single point] | Potency [17] 79.4 µM [cytotoxic, single point] | Potency [18] 79.4 µM [cytotoxic, single point] | Potency [19] 79.4 µM [cytotoxic, single point] | Potency [20] 79.4 µM [cytotoxic, single point] | Potency [21] 79.4 µM [cytotoxic, single point] | activity, negative = inhibition [1] -46.6% and -10.2% | activity change, negative = inhibition [22] -26.5% | activity change, negative = inhibition ([24]; activity change, negative = inhibition: at 76.7 µM (top of the series) unless noted) 6.7% | activation [3, 27] -10.2% | Potency [8] 24.3 µM [activator, partial curve, poor fit] | Potency [26] 50.1 µM [cytotoxic, partial curve, poor fit]
active: Potency [4] 39.8 µM

Source: PubChem BioAssay (NCATS)
